# The supplement of paper PMC10369915
# Some of the results follow. Rule as the data show it: active = 3.2 or more and inactive = the rest. Most of these values are background signal.
# Molecular target: SHP2 C-SH2 domain E139D
# Assay: enrichment score (SH2-bound / input frequency) (ratio); bacterial display of known human phosphotyrosine sites (pTyr-Var adds point mutants) read by sequencing; higher = stronger binding; tyrosines were phosphorylated by kinases first
# Conditions: peptide library: pTyr-Var
# 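Also: displayed peptides selected on beads carrying the immobilized SH2 domain, with library peptides lacking any tyrosine serving as negative controls.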
row,Binder,enrichment score
1,PLQKIYNFNVL [SLC4A1_Y553_T552I_YF],inactive: 2.57
2,PLQKTYNFNML [SLC4A1_Y553_V557M_YF],inactive: 0.959
3,PLQKTYNFNVL [SLC4A1_Y553_YF],inactive: 1.44
4,FPPTHYIRRMP [SLC4A11_Y820_V824M_YF],inactive: 0.405
5,MSSLPYMKMIF [SLC4A11_Y853],inactive: 2.08
6,FSCLPYRRLAY [SLC52A2_Y305_G306R],inactive: 0.227
7,FSCLPCGRLAY [SLC52A2_Y305_Y305C],active: 3.24
8,FSCLPCGRLAF [SLC52A2_Y305_Y305C_YF],active: 3.51
9,FSCLPYGRLAF [SLC52A2_Y305_YF],inactive: 1.07
10,PKEEPYQMQEK [SLC5A3_Y565],inactive: 0.536
11,VIIVLYFSLWK [SLC6A2_Y249_V245I],inactive: 1.03
12,QKINNYLTVPA [SLC9A1_Y683],inactive: 0.607
13,THEVRYVSAGQ [SLCO4A1_Y77],inactive: 0.685
14,KELSNYKHLTL [SLIT2_Y776],inactive: 0.498
15,LPHVIYCRLWR [SMAD2_Y128],inactive: 0.482
16,FPHVISARLWR [SMAD4_Y95_Y95S],inactive: 0.354
17,GPSTPYTKSKC [SMARCC2_Y324_R329C],inactive: 0.595
18,KPLMPSMRFSR [SMARCE1_Y73_Y73S_YF],inactive: 0.366

# Molecular target: SHP2 C-SH2 domain wild-type
# Assay: as above
# Conditions: peptide library: pTyr-Var
row,Binder,enrichment score
1,PLQKIYNFNVL [SLC4A1_Y553_T552I_YF],inactive: 2.27
2,PLQKTYNFNML [SLC4A1_Y553_V557M_YF],inactive: 1.33
3,PLQKTYNFNVL [SLC4A1_Y553_YF],inactive: 1.03
4,FPPTHYIRRMP [SLC4A11_Y820_V824M_YF],inactive: 0.216
5,MSSLPYMKMIF [SLC4A11_Y853],inactive: 2.05
6,FSCLPYRRLAY [SLC52A2_Y305_G306R],inactive: 0.251
7,FSCLPCGRLAY [SLC52A2_Y305_Y305C],inactive: 2.72
8,FSCLPCGRLAF [SLC52A2_Y305_Y305C_YF],active: 3.33
9,FSCLPYGRLAF [SLC52A2_Y305_YF],inactive: 0.801
10,PKEEPYQMQEK [SLC5A3_Y565],inactive: 0.683
11,VIIVLYFSLWK [SLC6A2_Y249_V245I],inactive: 0.893
12,QKINNYLTVPA [SLC9A1_Y683],inactive: 0.566
13,THEVRYVSAGQ [SLCO4A1_Y77],inactive: 0.653
14,KELSNYKHLTL [SLIT2_Y776],inactive: 0.602
15,LPHVIYCRLWR [SMAD2_Y128],inactive: 0.35
16,FPHVISARLWR [SMAD4_Y95_Y95S],inactive: 0.287
17,GPSTPYTKSKC [SMARCC2_Y324_R329C],inactive: 0.673
18,KPLMPSMRFSR [SMARCE1_Y73_Y73S_YF],inactive: 0.207

# Molecular target: SHP2 N-SH2 domain L43F
# Assay: as above
# Conditions: peptide library: pTyr-Var
row,Binder,enrichment score
1,PLQKIYNFNVL [SLC4A1_Y553_T552I_YF],inactive: 2.33
2,PLQKTYNFNML [SLC4A1_Y553_V557M_YF],inactive: 1.54
3,PLQKTYNFNVL [SLC4A1_Y553_YF],inactive: 1.2
4,FPPTHYIRRMP [SLC4A11_Y820_V824M_YF],inactive: 0.314
5,MSSLPYMKMIF [SLC4A11_Y853],active: 5.17
6,FSCLPYRRLAY [SLC52A2_Y305_G306R],inactive: 0.316
7,FSCLPCGRLAY [SLC52A2_Y305_Y305C],inactive: 3.05
8,FSCLPCGRLAF [SLC52A2_Y305_Y305C_YF],active: 4.13
9,FSCLPYGRLAF [SLC52A2_Y305_YF],inactive: 1.5
10,PKEEPYQMQEK [SLC5A3_Y565],inactive: 0.926
11,VIIVLYFSLWK [SLC6A2_Y249_V245I],inactive: 0.764
12,QKINNYLTVPA [SLC9A1_Y683],inactive: 0.902
13,THEVRYVSAGQ [SLCO4A1_Y77],inactive: 0.522
14,KELSNYKHLTL [SLIT2_Y776],inactive: 0.545
15,LPHVIYCRLWR [SMAD2_Y128],inactive: 0.359
16,FPHVISARLWR [SMAD4_Y95_Y95S],inactive: 0.307
17,GPSTPYTKSKC [SMARCC2_Y324_R329C],inactive: 0.693
18,KPLMPSMRFSR [SMARCE1_Y73_Y73S_YF],inactive: 0.328

# Molecular target: SHP2 N-SH2 domain T42A
# Assay: as above
# Conditions: peptide library: pTyr-Var
row,Binder,enrichment score
1,PLQKIYNFNVL [SLC4A1_Y553_T552I_YF],inactive: 1.83
2,PLQKTYNFNML [SLC4A1_Y553_V557M_YF],inactive: 1.23
3,PLQKTYNFNVL [SLC4A1_Y553_YF],inactive: 1.3
4,FPPTHYIRRMP [SLC4A11_Y820_V824M_YF],inactive: 0.303
5,MSSLPYMKMIF [SLC4A11_Y853],active: 9.47
6,FSCLPYRRLAY [SLC52A2_Y305_G306R],inactive: 0.26
7,FSCLPCGRLAY [SLC52A2_Y305_Y305C],inactive: 2.87
8,FSCLPCGRLAF [SLC52A2_Y305_Y305C_YF],inactive: 2.89
9,FSCLPYGRLAF [SLC52A2_Y305_YF],inactive: 1.29
10,PKEEPYQMQEK [SLC5A3_Y565],inactive: 0.914
11,VIIVLYFSLWK [SLC6A2_Y249_V245I],inactive: 0.954
12,QKINNYLTVPA [SLC9A1_Y683],inactive: 0.864
13,THEVRYVSAGQ [SLCO4A1_Y77],inactive: 0.522
14,KELSNYKHLTL [SLIT2_Y776],inactive: 0.621
15,LPHVIYCRLWR [SMAD2_Y128],inactive: 0.401
16,FPHVISARLWR [SMAD4_Y95_Y95S],inactive: 0.415
17,GPSTPYTKSKC [SMARCC2_Y324_R329C],inactive: 0.612
18,KPLMPSMRFSR [SMARCE1_Y73_Y73S_YF],inactive: 0.332

# Molecular target: SHP2 N-SH2 domain T52S
# Assay: as above
# Conditions: peptide library: pTyr-Var
row,Binder,enrichment score
1,PLQKIYNFNVL [SLC4A1_Y553_T552I_YF],active: 3.23
2,PLQKTYNFNML [SLC4A1_Y553_V557M_YF],inactive: 1.13
3,PLQKTYNFNVL [SLC4A1_Y553_YF],inactive: 1.15
4,FPPTHYIRRMP [SLC4A11_Y820_V824M_YF],inactive: 0.27
5,MSSLPYMKMIF [SLC4A11_Y853],active: 6.44
6,FSCLPYRRLAY [SLC52A2_Y305_G306R],inactive: 0.197
7,FSCLPCGRLAY [SLC52A2_Y305_Y305C],inactive: 2.86
8,FSCLPCGRLAF [SLC52A2_Y305_Y305C_YF],active: 3.32
9,FSCLPYGRLAF [SLC52A2_Y305_YF],inactive: 0.921
10,PKEEPYQMQEK [SLC5A3_Y565],inactive: 0.824
11,VIIVLYFSLWK [SLC6A2_Y249_V245I],inactive: 1.19
12,QKINNYLTVPA [SLC9A1_Y683],inactive: 0.947
13,THEVRYVSAGQ [SLCO4A1_Y77],inactive: 0.57
14,KELSNYKHLTL [SLIT2_Y776],inactive: 0.609
15,LPHVIYCRLWR [SMAD2_Y128],inactive: 0.317
16,FPHVISARLWR [SMAD4_Y95_Y95S],inactive: 0.369
17,GPSTPYTKSKC [SMARCC2_Y324_R329C],inactive: 0.558
18,KPLMPSMRFSR [SMARCE1_Y73_Y73S_YF],inactive: 0.352

# Molecular target: SHP2 N-SH2 domain wild-type
# Assay: as above
# Conditions: peptide library: pTyr-Var
row,Binder,enrichment score
1,PLQKIYNFNVL [SLC4A1_Y553_T552I_YF],inactive: 1.79
2,PLQKTYNFNML [SLC4A1_Y553_V557M_YF],inactive: 1.53
3,PLQKTYNFNVL [SLC4A1_Y553_YF],inactive: 1.09
4,FPPTHYIRRMP [SLC4A11_Y820_V824M_YF],inactive: 0.386
5,MSSLPYMKMIF [SLC4A11_Y853],inactive: 2
6,FSCLPYRRLAY [SLC52A2_Y305_G306R],inactive: 0.279
7,FSCLPCGRLAY [SLC52A2_Y305_Y305C],inactive: 2.38
8,FSCLPCGRLAF [SLC52A2_Y305_Y305C_YF],inactive: 2.65
9,FSCLPYGRLAF [SLC52A2_Y305_YF],inactive: 0.813
10,PKEEPYQMQEK [SLC5A3_Y565],inactive: 1.59
11,VIIVLYFSLWK [SLC6A2_Y249_V245I],inactive: 0.605
12,QKINNYLTVPA [SLC9A1_Y683],inactive: 1.4
13,THEVRYVSAGQ [SLCO4A1_Y77],inactive: 0.764
14,KELSNYKHLTL [SLIT2_Y776],inactive: 0.627
15,LPHVIYCRLWR [SMAD2_Y128],inactive: 0.403
16,FPHVISARLWR [SMAD4_Y95_Y95S],inactive: 0.361
17,GPSTPYTKSKC [SMARCC2_Y324_R329C],inactive: 0.726
18,KPLMPSMRFSR [SMARCE1_Y73_Y73S_YF],inactive: 0.352
